The values below come from article PMC4336329 (PLoS ONE, 2015).

The campaign covered roughly 310,000 compounds. About 14,000 (4.5%) showed an effect of 50% or more. Effects have a minus sign here. The list shows a part of the results.
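Also: peak tail current of the secondary pulse compared with the same well before compound.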

human ether-à-go-go-related gene (hERG) potassium channel, sequence (Q12809 whole entry, looked up): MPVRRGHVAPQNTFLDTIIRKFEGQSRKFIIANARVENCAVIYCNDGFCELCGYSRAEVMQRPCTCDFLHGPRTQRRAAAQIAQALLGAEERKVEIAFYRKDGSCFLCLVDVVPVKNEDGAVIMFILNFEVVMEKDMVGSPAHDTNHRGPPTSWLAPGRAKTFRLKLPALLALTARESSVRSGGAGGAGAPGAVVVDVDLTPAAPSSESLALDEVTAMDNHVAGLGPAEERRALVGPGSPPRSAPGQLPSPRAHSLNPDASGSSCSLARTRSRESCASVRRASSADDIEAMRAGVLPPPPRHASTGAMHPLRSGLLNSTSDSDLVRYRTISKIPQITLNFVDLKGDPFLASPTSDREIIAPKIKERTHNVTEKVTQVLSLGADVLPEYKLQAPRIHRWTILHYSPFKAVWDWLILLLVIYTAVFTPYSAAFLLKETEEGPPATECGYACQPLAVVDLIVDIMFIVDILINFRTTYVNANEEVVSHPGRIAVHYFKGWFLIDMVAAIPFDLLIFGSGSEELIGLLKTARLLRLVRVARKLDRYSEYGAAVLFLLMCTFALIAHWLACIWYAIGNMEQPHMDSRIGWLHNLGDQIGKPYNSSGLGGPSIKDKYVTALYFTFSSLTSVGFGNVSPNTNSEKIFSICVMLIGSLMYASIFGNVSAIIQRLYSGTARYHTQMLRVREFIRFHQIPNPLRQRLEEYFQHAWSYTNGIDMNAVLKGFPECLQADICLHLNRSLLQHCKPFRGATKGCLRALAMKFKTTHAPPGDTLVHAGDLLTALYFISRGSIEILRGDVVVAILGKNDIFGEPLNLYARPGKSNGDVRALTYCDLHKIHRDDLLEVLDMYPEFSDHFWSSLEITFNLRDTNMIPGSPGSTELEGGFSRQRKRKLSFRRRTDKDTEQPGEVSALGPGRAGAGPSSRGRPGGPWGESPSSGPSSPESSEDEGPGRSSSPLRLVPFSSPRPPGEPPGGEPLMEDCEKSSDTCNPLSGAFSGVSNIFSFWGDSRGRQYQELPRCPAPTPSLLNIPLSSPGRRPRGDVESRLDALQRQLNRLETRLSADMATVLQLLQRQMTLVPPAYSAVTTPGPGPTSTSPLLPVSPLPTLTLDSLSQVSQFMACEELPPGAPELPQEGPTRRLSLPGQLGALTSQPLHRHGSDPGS

This experiment addresses human ether-à-go-go-related gene (hERG) potassium channel (human, UniProt Q12809). Briefly: primary screen, population patch clamp on CHO cells stably expressing hERG.
Turning to `Nn1c(Cc2cccc3ccccc23)nnc1SCCOc1ccc(Br)cc1`, the “hERG current change (%, negative = inhibition) at 10uM” value is -3.65%. Next, `Cc1cc(C(=O)O)ccc1-c1ccc(/C=C2\NC(=O)N(Cc3ccccc3Cl)C2=O)o1`: 19%. Next, `COc1ccc(NS(=O)(=O)c2ccc(N3CCOCC3)c(NC(=O)c3ccccc3Br)c2)cc1`: -11.2%. Under `CN(C)c1ncc(S(=O)(=O)c2ccc(Cl)cc2)c(-c2ccccc2)n1` stands -6.65%; under `Cc1cccc(C(=O)NC2CCN(CC(=O)Nc3ccccc3Cl)CC2)c1`, -49%; under `Clc1ccc(CSc2nnc(/C=C/c3ccccc3)o2)c(Cl)c1`, 14.4%.

`Cc1cc(C(=O)COC(=O)/C=C/c2ccc(F)cc2)c(C)n1C`: the “hERG current change (%, negative = inhibition) at 10uM” value was found to be 4.57%. In the case of `Cc1cccc(N2CCN(c3ccc(NC(=O)/C=C\C(=O)O)cc3)CC2)c1`, the “hERG current change (%, negative = inhibition) at 10uM” value is 27.5%.

On to `CC(Sc1nncn1C)C(=O)Nc1ccc(N2CCCCC2)cc1` (stereo not drawn), for which the “hERG current change (%, negative = inhibition) at 10uM” value stood at 26.9%. Regarding `CN1CCCN(Cc2nc(-c3cccc(C(F)(F)F)c3)no2)CC1`, the “hERG current change (%, negative = inhibition) at 10uM” value is -60.2%.

Take `Cc1c(NC(=O)C(C)OC(=O)c2ccc(NC(=O)CC#N)cc2)c(=O)n(-c2ccccc2)n1C` (stereo not drawn): the “hERG current change (%, negative = inhibition) at 10uM” value amounted to 1.74%.

Turning to `COC(=O)c1cc(Cl)c(NC(=O)/C=C/c2ccc(Cl)cc2)cc1OC`, the “hERG current change (%, negative = inhibition) at 10uM” value is on record as -15.7%.

`COc1ccc2c(c1)sc(=N)n2CC(=O)Nc1cc(C)cc(C)c1`: the “hERG current change (%, negative = inhibition) at 10uM” value is -6.95%. With `O=C(Nc1ccc(F)cc1)Nc1cccnc1`, the “hERG current change (%, negative = inhibition) at 10uM” value is on record as -19.9%. As for `COc1ccccc1NC(=O)Nc1nn(C)c2cccc(OC)c12`, the “hERG current change (%, negative = inhibition) at 10uM” value came to 2.03%. Take `CC(O)(CS(=O)(=O)c1ccc(Br)cc1)c1ccccc1` (stereo not drawn): the “hERG current change (%, negative = inhibition) at 10uM” value worked out at 20.8%. Next, `NS(=O)(=O)c1ccc(CNC(=S)NC2CC2)cc1`: 2.67%; `O=C(NNC(=O)C1CCCO1)c1ccc(Br)cc1` (stereo not drawn): 5.24%. Under `Cc1cccc(N2CCN(C(=O)NC3CCCCC3)CC2)c1C` stands 1.11%; under `O=C(CCNC(=O)c1ccccc1Cl)Nc1nc(-c2ccccc2Cl)cs1`, -7.92%; under `Cc1ccc(-c2cnc3n2CCCCC3)cc1`, -29.7%.

As for `CC(=O)Nc1ccc(NC(=O)C(C)OC(=O)C(C)SCC(=O)Nc2ccc(C)cc2)cc1` (stereo not drawn), the “hERG current change (%, negative = inhibition) at 10uM” value is 8.63%. Under `C/C(=N\NC(=O)C1(C)CC1(Br)Br)c1cccc(NC(=O)c2ccc(C)o2)c1` (stereo not drawn) stands -12.9%; under `Cc1ccc(C(=O)OCC(=O)N2CCOCC2)cc1`, 15.6%. Next, `O=C1/C(=C\c2ccncc2)SC(=S)N1C1CCCCC1`: -0.179%; `COc1cc(-c2nnc3sc(-c4cccs4)nn23)cc(OC)c1OC`: 3.99%; `O=C(CSc1nc(O)c(-c2ccccc2)c(=O)[nH]1)N1CCOCC1`: 1.52%. For `COc1ccc(NC(=O)C(=O)NNC(=O)C(C)Oc2ccc(Cl)cc2Cl)cc1` (stereo not drawn), the “hERG current change (%, negative = inhibition) at 10uM” value is 19%. Under `CC(=O)c1ccccc1NC(=O)COC(=O)CCCN1C(=O)c2cccc3cccc(c23)C1=O` stands 7.06%; under `COc1cc(/C=N/NS(=O)(=O)c2ccc(C)cc2)ccc1OCc1cccc(C(=O)O)c1`, 21.2%; under `CN(C)S(=O)(=O)n1cc(/C=C(\NC(=O)c2ccccc2Cl)C(=O)NCCCn2ccnc2)c2ccccc21`, 12.4%. Turning to `CC(C)n1c(C(F)(F)F)nc2cc(C(=O)N3CCC(O)CC3)ccc21`, the “hERG current change (%, negative = inhibition) at 10uM” value is 17.2%. Next, `O=C(NC1CCCCC1)C(c1ccc(F)cc1)N(C(=O)c1cccs1)c1ccc2c(c1)OCO2` (stereo not drawn): -6.28%; `O=C1CC(c2cc(-c3ccccc3)no2)C1`: -9.96%. Next, `CC(OC(=O)c1ccc2ccccc2c1)C(=O)N(C)Cc1ccccc1` (stereo not drawn): -37.7%. For the compound `CC(=O)Nc1ccc(NC(=O)CSc2nnc(C)c(=O)[nH]2)cc1`, the “hERG current change (%, negative = inhibition) at 10uM” value is listed as 21.9%.

As for `CCc1cc(CNC(=O)CC2C(=O)NCCN2CC2CCCCC2)on1` (stereo not drawn), the “hERG current change (%, negative = inhibition) at 10uM” value is recorded as -16.3%. Next, `Cc1cc2oc(=O)sc2cc1NS(=O)(=O)c1cccc2cccnc12`: 9.71%; `COc1cc(C2c3c(oc4ccccc4c3=O)C(=O)N2Cc2ccco2)ccc1O` (stereo not drawn): -10.9%; `C/C(N)=C(/C#N)C(=O)CSc1nnc(-c2ccccc2Br)o1`: 16.6%. With `CC(=O)c1cccc(NC(=O)C(C)OC(=O)CCn2c(C)csc2=O)c1` (stereo not drawn), the “hERG current change (%, negative = inhibition) at 10uM” value is 12.1%. Under `O=C(NCC(c1ccco1)N1CCCC1)c1cc2ccccc2s1` (stereo not drawn) stands -34.1%.

In the case of `COc1ccc(NC(=O)CN(C)S(=O)(=O)c2ccc3c(c2)n(C)c(=O)c(=O)n3C)cc1`, the “hERG current change (%, negative = inhibition) at 10uM” value is listed as 14%. Next, `CCC(c1nnc(SCC(=O)Nc2nnc(-c3ccccc3)o2)o1)N(C)C` (stereo not drawn): 14%; `CCc1cccc2c(C(=O)COC(=O)c3cccc(S(=O)(=O)N(C)C4CCCCC4)c3)c[nH]c12`: 0.794%; `Cc1c(C(=O)N2CCN(Cc3ccc4c(c3)OCO4)CC2)sc2ncnc(N3CCN(c4ccccc4F)CC3)c12`: -1.46%. Under `CCOC(=O)NC(=O)C(=CNc1ccccc1OC)C(=O)NC(=O)OCC` stands 2.69%. On to `COc1ccc(NS(=O)(=O)c2cc(Cl)ccc2Cl)cc1S(=O)(=O)N1CCCCC1`, for which the “hERG current change (%, negative = inhibition) at 10uM” value turned out to be 0.782%.

As for `CC1=NN(c2nc(-c3ccc(C)cc3)cs2)C(=O)C1N=Nc1ccc(C(N)=O)cc1` (stereo not drawn), the “hERG current change (%, negative = inhibition) at 10uM” value is 28.4%.

`COc1ccc(CNC(=O)c2ccc(Cl)c(S(=O)(=O)N3CCOCC3)c2)cc1OC`: the “hERG current change (%, negative = inhibition) at 10uM” value is -23.2%. For `COc1ccc(CNCc2ccc(C(F)(F)F)cc2)cc1OC.O=C(O)C(=O)O`, the “hERG current change (%, negative = inhibition) at 10uM” value came to 6.54%. Under `CC(=O)c1cc(C#N)c(Oc2ccc(Cl)cc2Cl)nc1C` stands 24.2%. Regarding `CCn1nc(NC(=O)c2ccccn2)c2cc3cc(C)ccc3nc21`, the “hERG current change (%, negative = inhibition) at 10uM” value came out at 7.78%. Take `CCOC(=O)c1c(C)c2c(n1C)CCC/C2=N\O`: the “hERG current change (%, negative = inhibition) at 10uM” value was 4.79%.
